Experimental data: PubChem BioAssay AID504332 (National Center for Advancing Translational Sciences (NCATS), 2011)
About 31,000 (8.9%) of roughly 350,000 compounds were called active. Inconclusive means that the source gave no clear call. Such entries were picked first, then a sample of the others. Calls come from the whole dose curve; as a rule, active = well fitted inhibition curve with a large enough effect; inconclusive = small, poorly fitted or top-dose-only effect; inactive = no such curve, though single readings can be large or run the other way. A potency beside an inconclusive call is a rough fit, not a confirmed value.

target: Histone-lysine N-methyltransferase EHMT2 (Homo sapiens) (UniProt Q96KQ7); test: qHTS Assay for Inhibitors of Histone Lysine Methyltransferase G9a; conditions: G9a H3K9 monomethylation, AlphaScreen, 2 h; activity, negative = inhibition: at 59 µM (top of the series) unless noted; note: nearly all actives have a fitted effect of over 75% in size
Chain of UniProt Q96KQ7 (Q96KQ7 whole entry, looked up): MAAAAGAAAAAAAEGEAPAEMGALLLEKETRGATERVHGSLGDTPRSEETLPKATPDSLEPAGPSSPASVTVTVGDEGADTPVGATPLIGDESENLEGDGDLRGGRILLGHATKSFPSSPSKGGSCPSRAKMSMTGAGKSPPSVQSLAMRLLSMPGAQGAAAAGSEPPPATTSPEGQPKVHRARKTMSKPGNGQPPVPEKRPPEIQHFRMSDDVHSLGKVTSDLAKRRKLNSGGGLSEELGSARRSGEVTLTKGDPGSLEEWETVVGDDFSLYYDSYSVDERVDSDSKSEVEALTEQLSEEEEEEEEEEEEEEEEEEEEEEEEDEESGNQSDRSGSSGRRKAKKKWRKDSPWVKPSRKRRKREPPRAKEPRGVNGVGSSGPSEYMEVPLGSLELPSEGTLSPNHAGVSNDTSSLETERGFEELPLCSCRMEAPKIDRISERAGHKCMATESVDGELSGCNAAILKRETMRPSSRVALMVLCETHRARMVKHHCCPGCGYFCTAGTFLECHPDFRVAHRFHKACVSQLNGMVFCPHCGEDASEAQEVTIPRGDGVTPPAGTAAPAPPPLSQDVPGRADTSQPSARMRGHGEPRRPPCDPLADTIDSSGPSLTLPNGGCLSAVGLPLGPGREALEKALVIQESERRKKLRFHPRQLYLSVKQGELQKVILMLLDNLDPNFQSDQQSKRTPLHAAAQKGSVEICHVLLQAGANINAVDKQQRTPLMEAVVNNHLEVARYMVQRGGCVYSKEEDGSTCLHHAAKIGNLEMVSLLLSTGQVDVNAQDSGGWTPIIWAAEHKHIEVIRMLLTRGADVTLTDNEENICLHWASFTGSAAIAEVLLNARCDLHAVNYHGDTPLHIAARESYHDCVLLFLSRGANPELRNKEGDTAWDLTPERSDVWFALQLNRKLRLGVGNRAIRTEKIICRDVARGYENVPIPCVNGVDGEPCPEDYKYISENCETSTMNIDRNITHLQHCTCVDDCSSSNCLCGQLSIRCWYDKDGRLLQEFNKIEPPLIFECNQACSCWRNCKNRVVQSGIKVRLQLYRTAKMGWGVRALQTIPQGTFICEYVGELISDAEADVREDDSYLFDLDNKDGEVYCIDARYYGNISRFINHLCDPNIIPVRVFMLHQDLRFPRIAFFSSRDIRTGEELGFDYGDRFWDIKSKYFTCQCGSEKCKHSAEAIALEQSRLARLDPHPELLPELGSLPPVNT
Procedure, shortened: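 G9a (20 nM) was preincubated 15 min with compound, then reacted 2 h at room temperature with 500 nM biotin-H3K9 peptide and 20 µM SAM. Monomethyl-H3K9 detected by AlphaScreen using anti-H3K9me1 antibody.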
% is set by controls: 0 for no effect and ±100 for the full control effect; potency is the fitted concentration of half-maximal effect; tags give direction and shape of the fitted curve.

SMILES | Potency | activity, negative = inhibition
COc1ccc(OC)c(NC(=O)CN2C(=O)NC3(CCCc4ccccc43)C2=O)c1 (centres undefined) | inconclusive: 35.5 µM [inhibitor, single point] | 
COc1ccc(N(CC(=O)NCCc2ccc(C)cc2)S(=O)(=O)c2c(C)nn(C)c2C)cc1 |  | inactive: -3.43%
CCOc1cc(NC(=S)NCC2CCCO2)c(OCC)cc1NC(=O)c1ccc(OC)cc1 (centres undefined) | inconclusive: 79.4 µM [inhibitor, single point] | 
CCCc1n[nH]c(=S)n1Cc1ccco1 |  | inconclusive: -82.2% [inhibitor]
Cc1nc(S(=O)(=O)N2CCN(c3cccc(Cl)c3)CC2)cn1C |  | inactive: -16.9%
COc1cc(OC)cc(-c2nnc(SCC(=O)c3ccc([N+](=O)[O-])cc3)o2)c1 |  | inactive: 5.59%
O=C(NCCc1ccc(Cl)cc1)c1ccc2nc(CCc3ccccc3)oc2c1 |  | inactive: -0.672%
CCN(CC)c1ccc(S(=O)(=O)N2CCOCC2)cc1NC(=O)CNCc1ccccc1 | inconclusive: 44.7 µM [inhibitor, single point] | 
O=C(CN1CCN(c2ncc(C(F)(F)F)cc2Cl)CC1)NC(=O)NCc1ccccc1 | inconclusive: 31.6 µM [inhibitor, full curve, poor fit] | 
O=S(=O)(NCCc1ccncc1)c1cc(Br)ccc1F |  | inactive: -1.09% [at 12.7 µM]
S=C(Nc1ccc(Br)cc1)N1CCn2cccc2C1c1cccnc1 (centres undefined) | inconclusive: 56.2 µM [inhibitor, partial curve, poor fit] | 
CC(CCc1ccccc1)NS(=O)(=O)c1ccc(Cl)c(C(=O)O)c1 (centres undefined) | inconclusive: 79.4 µM [inhibitor, single point] | 
CC(C)Cn1nc(C(=O)Nc2nnc(C3CC3)s2)c2ccccc2c1=O | inconclusive: 6.31 µM [inhibitor, single point] | 
COc1cc2c(cc1NC(=O)CCCCCN1C(=O)CCC1=O)oc1ccccc12 | inconclusive: 35.5 µM [inhibitor, single point] | 
Cc1cc(=O)n2[nH]cc(-c3ccccc3)c2n1 | inconclusive: 50.1 µM [inhibitor, partial curve, poor fit] | 
COc1ccc(C2NC3=C(CCC3)C3(C#N)C(OC)(OC)N=C(N)C23C#N)cc1 (centres undefined) | inconclusive: 39.8 µM [inhibitor, single point] | 
CCOC(=O)C(Cc1ccc(OC)c([N+](=O)[O-])c1)NC(=O)CCC(=O)Nc1ccc(OC)cc1 (centres undefined) |  | inactive: 21% [at 102 µM]
Cc1noc(/C=C/NCc2cccnc2)c1S(=O)(=O)N(C)CC(=O)N1CCc2ccccc21 | inconclusive: 89.1 µM [inhibitor, single point] | 
O=P(O)(O)CCP(=O)(c1ccccc1)c1ccccc1 |  | inconclusive: -64.7% [inhibitor]
Cc1ccc(S(=O)(=O)N2CC(O)C[C@H]2C(=O)OCC(=O)Nc2ccc(N3CCOCC3)cc2)cc1C (some centres undefined) | active: 50.1 µM | 
O=C(Nc1nc2ccc(F)cc2s1)c1cccc(S(=O)(=O)N2CCc3ccccc32)c1 | inconclusive: 1.41 µM [inhibitor, full curve] | 
CC1CCN(S(=O)(=O)c2ccc3ncn(CC(=O)N4CCN(C)CC4)c(=O)c3c2)CC1 | inconclusive: 44.7 µM [inhibitor, partial curve, poor fit] | 

SMILES | Potency | activity, negative = inhibition
COc1ccccc1C(=O)NCC(c1ccc(N(C)C)cc1)N1CCc2ccccc21 (centres undefined) | active: 14.1 µM | 
CC(C)(C)CC(=O)Nc1nnc(CCc2ccccc2)s1 | inconclusive: 0.282 µM [inhibitor, full curve] | 
O=C(CCCn1c(=O)[nH]c2ccc(Br)cc2c1=O)N1CCN(c2cccc(Cl)c2)CC1 |  | inactive: -43.6%
CCOC(=O)c1cc(-c2ccc(OC)cc2)n(CCC(=O)Nc2cccc(C)c2C)c1C |  | inactive: -3.27%
CC1(C)CC(=O)C=C(Nc2ccc(OCC(F)(F)C(F)F)cc2)C1 | inconclusive: 2.24 µM [inhibitor, partial curve, poor fit] | 
COc1cccc(Nc2ncc3nc(C)c(=O)n(Cc4cccs4)c3n2)c1 |  | inactive: 0.895% [at 0.501 µM]
N=C(N)c1ccc(OCCCCCOc2ccc(C(=N)N)cc2)cc1 (tested in a mixture with another compound) |  | inactive: 20.1% [at 12.7 µM]
CCc1ccc(NC(=O)Cn2cccc2)cc1 | inconclusive: 79.4 µM [inhibitor, partial curve, poor fit] | 
CN(C)C(CNC(=O)c1cccc(S(=O)(=O)N2CC3(C)CC2CC(C)(C)C3)c1)c1ccco1 (centres undefined) | inconclusive: 44.7 µM [inhibitor, partial curve, poor fit] | 
COC(=O)c1c(C(=O)OC)c2ccncn2c1Cl | inconclusive: 15.8 µM [inhibitor, single point] | 
O=C(CSc1ccccc1C(=O)O)c1ccccc1 |  | inactive: -0.316%
Nc1nc(SCc2ccccc2)ns1 | active: 3.98 µM | 
CCCNC(=S)N1CCN(Cc2ccc3c(c2)OCO3)CC1 | active: 20 µM | 
Cc1ccccc1Cn1nc(C)c(NC(=O)c2cc(-c3ccco3)on2)c1C | inconclusive: 70.8 µM [inhibitor, partial curve, poor fit] | 
CCN(CC)S(=O)(=O)c1ccc(Cl)c(NC(=O)c2ccc(C#N)cc2)c1 | inconclusive: 3.98 µM [inhibitor, full curve, poor fit] | 
CCC(=O)Nc1cc(-c2cn3cccnc3n2)ccc1OC |  | inactive: 1.03%
O=C(O)c1cc(S(=O)(=O)N2CCN(C(=O)c3ccco3)CC2)c(Cl)cc1Cl | inconclusive: 89.1 µM [inhibitor, single point] | 
CC(=O)c1cccc(N/C=C\C(=O)c2ccc(C)cc2)c1 | inconclusive: 0.891 µM [inhibitor, full curve, poor fit] | 
COc1ccccc1NS(=O)(=O)c1cc(NC(=O)c2ccncc2)ccc1N1CCCC1 | active: 7.94 µM | 
Cc1c(Cl)cccc1NC(=O)Cn1c(=O)cc(C)c2c(C)nn(-c3cccc(F)c3)c21 |  | inactive: 7.07%
Cc1cccc(Cn2c(N3CCCCC3C)nc3c2c(=O)[nH]c(=O)n3C)c1 (centres undefined) |  | inactive: 15.6%
COc1ccc(NC(=O)c2cc(-c3ccc(F)cc3)no2)cc1OC | inconclusive: 15.8 µM [inhibitor, partial curve, poor fit] | 
